{"source": "the supplement of paper PMC8728848", "binders": {"B1": {"name": "AAA (Anguilla anguilla), Q7SIC1 (protein)", "chain": "VIPEGYTQENVAVRGKATQSAQLRGEHAANSEASNAIDGNRDSNFYHGSCTHSSGQANPWWRVDLLQVYTITSVTITNRGDCCGERISGAEINIGQHLASNGVNNPECSVIGSMATGETKTFHCPAPMIGRYVVTYLPTSESLHLCEVEVNVDKPAAA"}}, "assay_in_all_cases": "glycan array binding signal (z-score within array); higher = stronger binding", "conditions_in_all_cases": "glycan notation: IUPAC condensed, linker removed", "key": {"[1]": {"target": "Gal(b1-3)GlcNAc(b1-2)Man", "method_in_brief": "(§1)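 Glycan array binding is given as a within-array Z-score, which can be read as non-binding when negative. The arrays, 3228 of them, came from the Consortium for Functional Glycomics database and were retained only where the protein sequence was available. Z-scores were averaged across arrays of the same protein sequence at different concentrations or buffers and across linkers.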"}, "[2]": {"target": "Gal(b1-3)GlcNAc(b1-2)Man(a1-3)[Gal(b1-3)GlcNAc(b1-2)Man(a1-6)]Man(b1-4)GlcNAc(b1-4)GlcNAc", "method_in_brief": "as §1"}, "[3]": {"target": "Gal(b1-3)GlcNAc(b1-2)Man(a1-3)[Gal(b1-3)GlcNAc(b1-2)Man(a1-6)]Man(b1-4)GlcNAc(b1-4)[Fuc(a1-6)]GlcNAc", "method_in_brief": "as §1"}, "[4]": {"target": "Gal(b1-3)GlcNAc(b1-2)Man(a1-3)[GlcNAc(b1-4)][Gal(b1-3)GlcNAc(b1-2)Man(a1-6)]Man(b1-4)GlcNAc(b1-4)GlcNAc", "method_in_brief": "as §1"}, "[5]": {"target": "Gal(b1-3)GlcNAc(b1-2)[Gal(b1-3)GlcNAc(b1-6)]Man(a1-6)[Gal(b1-3)GlcNAc(b1-2)Man(a1-3)]Man(b1-4)GlcNAc(b1-4)GlcNAc", "method_in_brief": "as §1"}, "[6]": {"target": "Gal(b1-3)GlcNAc(b1-3)Gal(b1-3)GlcNAc", "method_in_brief": "as §1"}, "[7]": {"target": "Gal(b1-3)GlcNAc(b1-3)Gal(b1-4)Glc", "method_in_brief": "as §1"}, "[8]": {"target": "Gal(b1-3)GlcNAc(b1-3)Gal(b1-4)GlcNAc", "method_in_brief": "as §1"}, "[9]": {"target": "Gal(b1-3)GlcNAc(b1-3)Gal(b1-4)GlcNAc(b1-2)Man(a1-3)[Gal(b1-3)GlcNAc(b1-3)Gal(b1-4)GlcNAc(b1-2)Man(a1-6)]Man(b1-4)GlcNAc(b1-4)GlcNAc", "method_in_brief": "as §1"}, "[10]": {"target": "Gal(b1-3)GlcNAc(b1-3)Gal(b1-4)GlcNAc(b1-2)[Gal(b1-3)GlcNAc(b1-3)Gal(b1-4)GlcNAc(b1-6)]Man(a1-6)[Gal(b1-3)GlcNAc(b1-3)Gal(b1-4)GlcNAc(b1-2)Man(a1-3)]Man(b1-4)GlcNAc(b1-4)[Fuc(a1-6)]GlcNAc", "method_in_brief": "as §1"}, "[11]": {"target": "Gal(b1-3)GlcNAc(b1-3)Gal(b1-4)GlcNAc(b1-3)Gal(b1-4)GlcNAc(b1-2)[Gal(b1-3)GlcNAc(b1-3)Gal(b1-4)GlcNAc(b1-3)Gal(b1-4)GlcNAc(b1-6)]Man(a1-6)[Gal(b1-3)GlcNAc(b1-3)Gal(b1-4)GlcNAc(b1-3)Gal(b1-4)GlcNAc(b1-2)Man(a1-3)]Man(b1-4)GlcNAc(b1-4)[Fuc(a1-6)]GlcNAc", "method_in_brief": "as §1"}, "[12]": {"target": "Gal(b1-3)GlcNAc(b1-3)Gal(b1-4)GlcNAc(b1-6)[Gal(b1-3)GlcNAc(b1-3)]Gal(b1-4)Glc", "method_in_brief": "as §1"}, "[13]": {"target": "Gal(b1-3)GlcNAc(b1-3)Gal(b1-4)[Fuc(a1-3)]GlcNAc", "method_in_brief": "as §1"}, "[14]": {"target": "Gal(b1-3)GlcNAc(b1-3)Gal(b1-4)[Fuc(a1-3)]GlcNAc(b1-6)[Gal(b1-3)GlcNAc(b1-3)]Gal(b1-4)Glc", "method_in_brief": "as §1"}, "[15]": {"target": "Gal(b1-3)GlcNAc(b1-3)GalNAc", "method_in_brief": "as §1"}, "[16]": {"target": "Gal(b1-3)GlcNAc(b1-6)Gal(b1-4)GlcNAc", "method_in_brief": "as §1"}, "[17]": {"target": "Gal(b1-3)GlcNAc(b1-6)GalNAc", "method_in_brief": "as §1"}, "[18]": {"target": "Gal(b1-3)GlcNAc(b1-6)[Gal(b1-3)]GalNAc", "method_in_brief": "as §1"}, "[19]": {"target": "Gal(b1-3)GlcNAc6S", "method_in_brief": "as §1"}, "[20]": {"target": "Gal(b1-3)[Fuc(a1-4)]GlcNAc", "method_in_brief": "as §1"}, "[21]": {"target": "Gal(b1-3)[Fuc(a1-4)]GlcNAc(b1-2)Man", "method_in_brief": "as §1"}, "[22]": {"target": "Gal(b1-3)[Fuc(a1-4)]GlcNAc(b1-2)Man(a1-3)[Gal(b1-3)[Fuc(a1-4)]GlcNAc(b1-2)Man(a1-6)]Man(b1-4)GlcNAc(b1-4)[Fuc(a1-6)]GlcNAc", "method_in_brief": "as §1"}, "[23]": {"target": "Gal(b1-3)[Fuc(a1-4)]GlcNAc(b1-3)Gal(b1-3)[Fuc(a1-4)]GlcNAc", "method_in_brief": "as §1"}, "[24]": {"target": "Gal(b1-3)[Fuc(a1-4)]GlcNAc(b1-3)Gal(b1-4)GlcNAc", "method_in_brief": "as §1"}, "[25]": {"target": "Gal(b1-3)[Fuc(a1-4)]GlcNAc(b1-3)Gal(b1-4)[Fuc(a1-3)]GlcNAc", "method_in_brief": "as §1"}, "[26]": {"target": "Gal(b1-3)[Fuc(a1-4)]GlcNAc(b1-6)GalNAc", "method_in_brief": "as §1"}, "[27]": {"target": "Gal(b1-3)[GlcNAc(b1-6)]GalNAc", "method_in_brief": "as §1"}, "[28]": {"target": "Gal(b1-3)[GlcNAc(b1-6)]GlcNAc", "method_in_brief": "as §1"}, "[29]": {"target": "Gal(b1-3)[Neu5Ac(a2-6)]GalNAc", "method_in_brief": "as §1"}, "[30]": {"target": "Gal(b1-3)[Neu5Ac(a2-6)]GlcNAc", "method_in_brief": "as §1"}, "[31]": {"target": "Gal(b1-3)[Neu5Ac(a2-6)]GlcNAc(a1-4)Gal(b1-4)Glc", "method_in_brief": "as §1"}, "[32]": {"target": "Gal(b1-3)[Neu5Ac(a2-6)]GlcNAc(b1-4)Gal(b1-4)Glc", "method_in_brief": "as §1"}, "[33]": {"target": "Gal(b1-3)[Neu5Ac(b2-6)]GalNAc", "method_in_brief": "as §1"}, "[34]": {"target": "Gal(b1-3)[Neu5Ac(b2-6)]GlcNAc", "method_in_brief": "as §1"}, "[35]": {"target": "Gal(b1-4)Gal", "method_in_brief": "as §1"}, "[36]": {"target": "Gal(b1-4)GalNAc(a1-3)[Fuc(a1-2)]Gal(b1-4)GlcNAc", "method_in_brief": "as §1"}, "[37]": {"target": "Gal(b1-4)GalNAc(b1-3)[Fuc(a1-2)]Gal(b1-4)GlcNAc", "method_in_brief": "as §1"}, "[38]": {"target": "Gal(b1-4)Glc", "method_in_brief": "as §1"}, "[39]": {"target": "Gal(b1-4)Glc6S", "method_in_brief": "as §1"}, "[40]": {"target": "Gal(b1-4)GlcNAc", "method_in_brief": "as §1"}, "[41]": {"target": "Gal(b1-4)GlcNAc(a1-6)Gal(b1-4)GlcNAc", "method_in_brief": "as §1"}, "[42]": {"target": "Gal(b1-4)GlcNAc(b1-2)Man", "method_in_brief": "as §1"}, "[43]": {"target": "Gal(b1-4)GlcNAc(b1-2)Man(a1-3)Man(b1-4)GlcNAc(b1-4)GlcNAc", "method_in_brief": "as §1"}, "[44]": {"target": "Gal(b1-4)GlcNAc(b1-2)Man(a1-3)[Gal(b1-4)GlcNAc(b1-2)Man(a1-6)]Man(b1-4)GlcNAc(b1-4)GlcNAc", "method_in_brief": "as §1"}, "[45]": {"target": "Gal(b1-4)GlcNAc(b1-2)Man(a1-3)[Gal(b1-4)GlcNAc(b1-2)Man(a1-6)]Man(b1-4)GlcNAc(b1-4)[Fuc(a1-6)]GlcNAc", "method_in_brief": "as §1"}}, "note": "The other results are listed elsewhere or left out."}
{"binder": "B1", "values": [{"measurement": "glycan array binding signal (z-score)", "setting": "[1]", "result": -0.151}, {"measurement": "glycan array binding signal (z-score)", "setting": "[2]", "result": -0.149}, {"measurement": "glycan array binding signal (z-score)", "setting": "[3]", "result": -0.043}, {"measurement": "glycan array binding signal (z-score)", "setting": "[4]", "result": -0.119}, {"measurement": "glycan array binding signal (z-score)", "setting": "[5]", "result": -0.18}, {"measurement": "glycan array binding signal (z-score)", "setting": "[6]", "result": -0.126}, {"measurement": "glycan array binding signal (z-score)", "setting": "[7]", "result": -0.169}, {"measurement": "glycan array binding signal (z-score)", "setting": "[8]", "result": -0.173}, {"measurement": "glycan array binding signal (z-score)", "setting": "[9]", "result": -0.223}, {"measurement": "glycan array binding signal (z-score)", "setting": "[10]", "result": 0.216}, {"measurement": "glycan array binding signal (z-score)", "setting": "[11]", "result": -0.041}, {"measurement": "glycan array binding signal (z-score)", "setting": "[12]", "result": -0.172}, {"measurement": "glycan array binding signal (z-score)", "setting": "[13]", "result": -0.057}, {"measurement": "glycan array binding signal (z-score)", "setting": "[14]", "result": -0.209}, {"measurement": "glycan array binding signal (z-score)", "setting": "[15]", "result": -0.246}, {"measurement": "glycan array binding signal (z-score)", "setting": "[16]", "result": -0.196}, {"measurement": "glycan array binding signal (z-score)", "setting": "[17]", "result": -0.239}, {"measurement": "glycan array binding signal (z-score)", "setting": "[18]", "result": -0.275}, {"measurement": "glycan array binding signal (z-score)", "setting": "[19]", "result": -0.306}, {"measurement": "glycan array binding signal (z-score)", "setting": "[20]", "result": -0.126}, {"measurement": "glycan array binding signal (z-score)", "setting": "[21]", "result": -0.089}, {"measurement": "glycan array binding signal (z-score)", "setting": "[22]", "result": 0.182}, {"measurement": "glycan array binding signal (z-score)", "setting": "[23]", "result": 0.164}, {"measurement": "glycan array binding signal (z-score)", "setting": "[24]", "result": -0.092}, {"measurement": "glycan array binding signal (z-score)", "setting": "[25]", "result": -0.281}, {"measurement": "glycan array binding signal (z-score)", "setting": "[26]", "result": -0.081}, {"measurement": "glycan array binding signal (z-score)", "setting": "[27]", "result": 0.146}, {"measurement": "glycan array binding signal (z-score)", "setting": "[28]", "result": -0.011}, {"measurement": "glycan array binding signal (z-score)", "setting": "[29]", "result": -0.106}, {"measurement": "glycan array binding signal (z-score)", "setting": "[30]", "result": -0.743}, {"measurement": "glycan array binding signal (z-score)", "setting": "[31]", "result": -0.329}, {"measurement": "glycan array binding signal (z-score)", "setting": "[32]", "result": -0.118}, {"measurement": "glycan array binding signal (z-score)", "setting": "[33]", "result": -0.242}, {"measurement": "glycan array binding signal (z-score)", "setting": "[34]", "result": -0.171}, {"measurement": "glycan array binding signal (z-score)", "setting": "[35]", "result": -0.226}, {"measurement": "glycan array binding signal (z-score)", "setting": "[36]", "result": -0.218}, {"measurement": "glycan array binding signal (z-score)", "setting": "[37]", "result": -0.22}, {"measurement": "glycan array binding signal (z-score)", "setting": "[38]", "result": -0.282}, {"measurement": "glycan array binding signal (z-score)", "setting": "[39]", "result": 0.091}, {"measurement": "glycan array binding signal (z-score)", "setting": "[40]", "result": -0.211}, {"measurement": "glycan array binding signal (z-score)", "setting": "[41]", "result": -0.212}, {"measurement": "glycan array binding signal (z-score)", "setting": "[42]", "result": -0.202}, {"measurement": "glycan array binding signal (z-score)", "setting": "[43]", "result": -0.213}, {"measurement": "glycan array binding signal (z-score)", "setting": "[44]", "result": -0.354}, {"measurement": "glycan array binding signal (z-score)", "setting": "[45]", "result": -0.099}]}
